Data as given in the antibiotic and cytotoxicity screens of Wong et al. (2023).
Some of the results follow.

These molecules were tested on S. aureus RN4220 (assay: growth inhibition call (relative growth <= 0.2)). Details: 50 µM.

Growth inhibition call, inactive:
C[C@H](CO)N1C[C@H](C)[C@H](CN(C)S(=O)(=O)c2ccccc2)Oc2ncc(Br)cc2C1=O, CN1CCN(C(=O)C[C@@H]2CC[C@@H](NC(=O)Cc3ccccn3)[C@H](CO)O2)CC1, CC(C)N1C[C@@H](C)[C@H](CN(C)Cc2ccc(Oc3ccccc3)cc2)Oc2c(cccc2N(C)C(=O)c2ccncc2)C1=O, CC(C)(Sc1cc(C(C)(C)C)c(O)c(C(C)(C)C)c1)Sc1cc(C(C)(C)C)c(O)c(C(C)(C)C)c1, C[C@@H]1CN([C@H](C)CO)C(=O)Cc2cc(NC(=O)CCC(F)(F)F)ccc2O[C@@H]1CN(C)C(=O)Nc1cccc2ccccc12, O=C(C[C@@H]1C[C@@H]2c3cc(NC(=O)Cc4ccncc4)ccc3O[C@@H]2[C@@H](CO)O1)NCc1cccc(F)c1, Oc1cc2c(cc1O)C1c3ccc(O)c(O)c3OCC1(O)C2 (stereo not given), C[C@H](CO)N1C[C@H](C)[C@H](CN(C)Cc2ccc(C(=O)O)cc2)Oc2ccc(NS(=O)(=O)c3ccccc3)cc2CC1=O, CC(C)CC#Cc1cnc2c(c1)C(=O)N([C@@H](C)CO)C[C@@H](C)[C@H](CN(C)S(=O)(=O)c1cn(C)cn1)O2

Growth inhibition call, active:
CC[C@H]1OC(=O)C[C@@H](O)[C@H](C)[C@@H](O[C@@H]2O[C@H](C)[C@@H](O[C@H]3C[C@@](C)(O)[C@@H](O)[C@H](C)O3)[C@H](N(C)C)[C@H]2O)[C@@H](CC=O)C[C@@H](C)C(=O)/C=C/C(C)=C/[C@@H]1CO[C@@H]1O[C@H](C)[C@@H](O)[C@@H](OC)[C@H]1OC
